From the supplement of paper PMC3334620
In all, about 33,000 sequences were measured (“E-score (-0.5 to 0.5)”: median about -0.013, highest 2% from about 0.3 on). The list shows a part of the results.

Target: T1, Msn1 (UniProt P22148)
T1 sequence: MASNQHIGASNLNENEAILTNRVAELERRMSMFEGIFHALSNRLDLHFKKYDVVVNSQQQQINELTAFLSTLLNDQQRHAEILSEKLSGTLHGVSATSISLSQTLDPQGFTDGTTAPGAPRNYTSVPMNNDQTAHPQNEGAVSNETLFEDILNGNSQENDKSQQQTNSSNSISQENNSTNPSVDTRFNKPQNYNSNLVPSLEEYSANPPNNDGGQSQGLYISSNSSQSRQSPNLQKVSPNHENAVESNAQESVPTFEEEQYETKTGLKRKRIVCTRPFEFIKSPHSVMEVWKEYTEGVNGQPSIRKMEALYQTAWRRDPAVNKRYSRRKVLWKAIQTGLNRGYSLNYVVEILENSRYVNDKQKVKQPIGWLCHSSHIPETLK
Assay: PBM E-score (8-mer binding enrichment) (E-score (-0.5 to 0.5)); higher = stronger / more preferred TF binding; most listed sequences are background and not binding sites
Settings: protein concentration: 200 nM; construct: GST-full length
Procedure, shortened: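 GST-tagged yeast TFs (full-length or DNA-binding domain) were made by PURExpress in vitro transcription/translation and applied at about 100-200 nM to universal all-10-mer Agilent arrays. The arrays were made double-stranded by primer extension, on fresh or once-stripped slides. Bound protein was detected with fluorescent anti-GST, and scans were normalised with masliner. Each ungapped eight-base word, pooled with its reverse complement, received an E-score (modified Wilcoxon-Mann-Whitney statistic) from the Universal PBM Analysis Suite.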

Row | Sequence | PBM E-score
1 | GAATAGTC | 0.0177
2 | TATCCCCA | -0.0644
3 | AAGATCCA | -0.0273
4 | CTTTCTTA | 0.146
5 | GTTCAATA | -0.00627
6 | CTTCCGGA | 0.132
7 | AACCTCTG | -0.259
8 | CCCTCCCA | -0.161
9 | AACAAGTA | -0.0396
10 | GGAAAGAA | -0.0445
11 | ATGGTATA | 0.102
12 | ACTGGGTC | -0.357
13 | TGGCGCCA | -0.191
14 | CCTGGGAC | 0.0273
15 | CGGGGTCA | -0.0794
16 | TGCGCCAA | -0.0871
17 | CCCCTTAC | -0.214
18 | AATTTACA | 0.00341
19 | AGTATACG | 0.0404
20 | ATAACATC | -0.0182
21 | CAATAGCA | -0.168
22 | ACTACGCC | -0.229
23 | GCTTACGA | -0.156
24 | GTAATAGA | -0.137
25 | ATTCTAAC | -0.11

Row | Sequence | PBM E-score
26 | CGTCTCAA | 0.00785
27 | AAAGAAAA | 0.201
28 | CAGGCGAA | -0.0597
29 | AGCGGGGG | -0.382
30 | AATAGTAA | 0.144
31 | AAGTTGCC | -0.115
32 | ATGGCCCG | -0.052
33 | AAGGCTCA | 0.00716
34 | ACATCATG | 0.153
35 | CATTCGTA | -0.0427
36 | AGGGGTCA | -0.0619
37 | TACTCTAA | 0.00869
38 | GCTGACAC | 0.105
39 | AGAGCCCT | -0.142
40 | TGACGGAA | 0.0985
41 | CGAAGACA | 0.259
42 | AGGCACTG | 0.0208
43 | CCTGCAAG | -0.262
44 | CCACTGGC | 0.051
45 | GCAAATTA | -0.0115
46 | AACGCGCT | 0.0559
47 | GCGATAAA | 0.0531
48 | CGGCGAGC | 0.0882
49 | ACTGGGAG | -0.106
50 | GACTAGGA | 0.112

Row | Sequence | PBM E-score
51 | AGTTACTA | -0.0184
52 | CGATCAAG | -0.0494
53 | GAGCAACA | -0.0705
54 | CTGGCCTA | -0.218
55 | CACGGCTA | 0.0276
56 | ACTAGCTA | -0.0388
57 | AGGGCTAA | -0.0295
58 | ACGAGAGC | -0.118
59 | CTATGACC | -0.0237
60 | TCGGACCA | 0.12
61 | GCGAGATA | 0.09
62 | AACTATCG | -0.109
63 | CGCTTCAA | 0.0409
64 | GCGCTTTA | 0.0318
65 | CCTTTCGA | 0.00331
66 | AGTTCTTC | 0.045
67 | ATCTTTTG | 0.0826
68 | ACTACACG | 0.00207
69 | GACTGCCC | -0.173
70 | GATGGAGC | -0.185
71 | AAGGCTAA | -0.0866
72 | ATGAATCG | 0.0497
73 | GAAAGCAC | -0.106
74 | AGCGGGAC | -0.0126
75 | GATTACGA | 0.106

Row | Sequence | PBM E-score
76 | GCAGTGGA | 0.0771
77 | ACACTTAG | 0.0598
78 | GCGTCGTA | 0.163
79 | CCTGCAGA | -0.0096
80 | CACAATGC | -0.116
81 | AACCGCCC | -0.223
82 | ACATTCTG | 0.162
83 | CAAGAGTC | 0.00433
84 | CCCAGATC | -0.236
85 | GTTTGTAA | 0.126
86 | ATGGAAAC | -0.152
87 | CAGACAAA | 0.451
88 | CACTGGGG | -0.105
89 | GCATAACC | -0.0797
90 | ATACCCGG | -0.0671
91 | CGCTCCCA | -0.017
92 | CCTAACTA | 0.172
93 | CTACACAA | 0.0957
94 | GGCACCCA | -0.268
95 | ATAGCCGG | 0.116
96 | CCTCCATA | 0.0338
97 | AAAGCGTT | 0.00931
98 | CCCGTAGG | -0.267
99 | CGAGTTAG | 0.0955
100 | GACAGGGA | 0.0869

Row | Sequence | PBM E-score
101 | CGACAGCG | 0.00293
102 | TACGAATA | 0.188
103 | AGTATCGA | 0.127
104 | ACACCCAA | -0.0114
105 | GGACACTA | 0.217
106 | AGGCATTG | -0.211
107 | CGCACTGA | 0.058
108 | ACAGGACA | 0.421
109 | GCTAAGGA | -0.102
110 | ACCCGCCG | 0.00546
111 | AGACTAGC | -0.163
112 | CTAGCGTA | -0.199
113 | AAGTTGCT | -0.138
114 | ACTTTTGC | 0.144
115 | GTACCTAC | 0.0568
116 | ACCTGTTA | -0.101
117 | CTCACCGA | -0.0331
118 | GGTGTTCA | -0.00074
119 | AGGTGACC | 0.02
120 | AGCAGCAT | -0.0944
121 | CGAGCTGA | 0.127
122 | GATGTATA | -0.11
123 | ACTACTCC | -0.106
124 | TCCTGGAA | -0.0415
125 | CCCACACC | -0.101

Row | Sequence | PBM E-score
126 | CCAAGGGA | -0.0389
127 | CCGCGTAC | -0.0584
128 | AACTTCTG | 0.0608
129 | ACCGACGC | -0.203
130 | CCTTCACA | -0.0989
131 | CACGGCGA | 0.0227
132 | AATCGAGC | -0.125
133 | CTGACGGA | 0.0868
134 | ACACCAAG | -0.0187
135 | TATGGGGA | 0.123
136 | AAGGACGT | 0.32
137 | ACATGCCG | 0.169
138 | ATCATAGA | 0.055
139 | TAGCGCTA | -0.119
140 | ATCGGTAC | 0.0907
141 | CTGGCTTC | -0.281
142 | ACGAAAAC | 0.301
143 | CTATCGTC | -0.115
144 | ATCCCAAC | -0.00635
145 | CAAAACTG | 0.127
146 | AAGCGGCT | -0.0338
147 | AAAGTCGT | 0.223
148 | CTAGTAAA | 0.167
149 | ACAGGCGA | -0.0494
150 | CGACTGCC | -0.094

Row | Sequence | PBM E-score
151 | ATTAAACG | 0.221
152 | GACCTTCA | -0.153
153 | ACAGCTCG | -0.137
154 | AGAATGCG | -0.133
155 | AGCAGCCG | -0.125
156 | ATCTCGCA | 0.233
157 | TCAGCCAA | -0.138
158 | AAGACTAA | 0.143
159 | AATGTGAG | -0.0249
160 | GTTTAAAA | 0.0898
161 | ATGTCACA | 0.363
162 | TGATGGAA | 0.0341
163 | CGCGTCAC | 0.132
164 | CTCTTGGC | -0.293
165 | CCTTTGAC | -0.139
166 | GAAGCTGC | 0.0141
167 | CCAACTTA | 0.0784
168 | ATTTCAGG | -0.0254
169 | GCCATTGA | 0.00063
170 | ATGTTGGC | -0.0626
171 | AAGTGACC | -0.126
172 | CGAAGGCA | -0.128
173 | AACAGGCA | 0.0606
174 | CTTACACA | -0.0523
175 | GTCACCCA | -0.051

Row | Sequence | PBM E-score
176 | CGTTTAGA | 0.0804
177 | GAGCGCCA | -0.352
178 | ACTCCATA | -0.2
179 | CGTCGACC | 0.12
180 | ATAGCCGC | -0.0788
181 | ACGGCGCG | 0.141
182 | CACCGCAG | -0.209
183 | GTAGCAAC | -0.0334
184 | CACGTTGG | -0.0386
185 | AAGACCAG | -0.205
186 | AACTACGC | 0.0124
187 | GTCCACAC | 0.267
188 | CTGGAATA | 0.161
189 | ACTGAGTA | -0.15
190 | GATATATC | 0.143
191 | CGTCTGCC | -0.00954
192 | GCTCGGAC | 0.246
193 | ATTCTTGC | 0.074
194 | CGTGGAAA | 0.0488
195 | ACAGCAAA | 0.095
196 | CTTGCTCA | -0.0607
197 | ACATACAT | 0.309
198 | AATATGGG | -0.0502
199 | AGAGCATA | -0.0803
200 | CGCAGCAC | -0.00518

Row | Sequence | PBM E-score
201 | ACATTTCA | 0.363
202 | ATAATGCA | -0.0952
203 | AATCCCGA | 0.238
204 | ATAGTTCA | 0.0157
205 | GCCGGAAC | 0.122
206 | ACACCCGG | -0.17
207 | AGTTGCAT | 0.0278
208 | CGCTACAG | -0.163
209 | AAAGCGAT | 0.00359
210 | ATGCTACC | -0.126
211 | GAGAAAAA | 0.209
212 | CACCAAGG | -0.297
213 | TCCGGTAA | 0.124
214 | CAAGACGC | 0.0107
215 | GGAAAAAA | 0.137
216 | ATTCGATA | 0.103
217 | AGAAGCAT | -0.0953
218 | CGTAATGC | 0.0985
219 | AATACCTA | 0.111
